Measurements published in article PMC9866381.
No constants are given. Whether binding was seen depends on the method and setting. In cells and extracts the contact can be indirect. Some binding calls cover weakened binding; strength is not graded here.

Amino acid sequences for entries named in this document (tags omitted).
UniProt P19785: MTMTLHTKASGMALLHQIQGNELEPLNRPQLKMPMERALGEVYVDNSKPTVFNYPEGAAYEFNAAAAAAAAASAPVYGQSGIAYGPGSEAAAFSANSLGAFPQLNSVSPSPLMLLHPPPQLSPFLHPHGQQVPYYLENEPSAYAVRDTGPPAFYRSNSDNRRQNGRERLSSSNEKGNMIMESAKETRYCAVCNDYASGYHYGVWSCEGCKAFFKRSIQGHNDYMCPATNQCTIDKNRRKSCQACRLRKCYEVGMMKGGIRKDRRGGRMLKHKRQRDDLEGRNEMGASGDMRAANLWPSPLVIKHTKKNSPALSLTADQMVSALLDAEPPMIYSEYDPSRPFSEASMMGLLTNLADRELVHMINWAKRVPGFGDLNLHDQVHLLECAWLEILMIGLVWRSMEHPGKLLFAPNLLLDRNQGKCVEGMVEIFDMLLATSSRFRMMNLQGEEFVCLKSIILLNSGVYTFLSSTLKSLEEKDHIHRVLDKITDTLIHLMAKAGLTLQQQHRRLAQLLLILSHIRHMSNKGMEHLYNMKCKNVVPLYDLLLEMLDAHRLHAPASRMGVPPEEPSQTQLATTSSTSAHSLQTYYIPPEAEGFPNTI
UniProt P70168: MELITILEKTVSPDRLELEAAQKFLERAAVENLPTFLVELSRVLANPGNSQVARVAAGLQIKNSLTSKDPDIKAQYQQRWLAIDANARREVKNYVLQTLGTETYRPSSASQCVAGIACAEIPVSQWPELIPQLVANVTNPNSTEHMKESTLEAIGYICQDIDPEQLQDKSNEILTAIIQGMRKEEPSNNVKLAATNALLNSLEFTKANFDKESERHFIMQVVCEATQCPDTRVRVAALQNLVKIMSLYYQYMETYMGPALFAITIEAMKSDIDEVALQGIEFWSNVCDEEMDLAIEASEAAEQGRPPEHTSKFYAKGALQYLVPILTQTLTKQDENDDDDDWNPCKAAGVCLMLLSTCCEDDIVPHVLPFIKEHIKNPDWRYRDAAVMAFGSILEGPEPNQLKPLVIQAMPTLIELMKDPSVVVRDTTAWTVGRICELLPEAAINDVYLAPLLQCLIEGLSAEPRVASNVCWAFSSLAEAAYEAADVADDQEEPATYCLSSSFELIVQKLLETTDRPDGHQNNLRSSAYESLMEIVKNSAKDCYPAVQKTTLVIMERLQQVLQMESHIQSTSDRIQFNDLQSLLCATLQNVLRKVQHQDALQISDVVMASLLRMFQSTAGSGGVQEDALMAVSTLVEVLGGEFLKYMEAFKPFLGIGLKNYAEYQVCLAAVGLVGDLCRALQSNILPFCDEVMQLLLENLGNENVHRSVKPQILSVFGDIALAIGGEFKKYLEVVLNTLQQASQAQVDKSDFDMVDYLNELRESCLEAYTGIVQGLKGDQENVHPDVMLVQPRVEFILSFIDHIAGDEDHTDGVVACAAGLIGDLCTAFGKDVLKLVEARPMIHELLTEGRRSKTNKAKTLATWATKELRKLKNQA
UniProt P37238: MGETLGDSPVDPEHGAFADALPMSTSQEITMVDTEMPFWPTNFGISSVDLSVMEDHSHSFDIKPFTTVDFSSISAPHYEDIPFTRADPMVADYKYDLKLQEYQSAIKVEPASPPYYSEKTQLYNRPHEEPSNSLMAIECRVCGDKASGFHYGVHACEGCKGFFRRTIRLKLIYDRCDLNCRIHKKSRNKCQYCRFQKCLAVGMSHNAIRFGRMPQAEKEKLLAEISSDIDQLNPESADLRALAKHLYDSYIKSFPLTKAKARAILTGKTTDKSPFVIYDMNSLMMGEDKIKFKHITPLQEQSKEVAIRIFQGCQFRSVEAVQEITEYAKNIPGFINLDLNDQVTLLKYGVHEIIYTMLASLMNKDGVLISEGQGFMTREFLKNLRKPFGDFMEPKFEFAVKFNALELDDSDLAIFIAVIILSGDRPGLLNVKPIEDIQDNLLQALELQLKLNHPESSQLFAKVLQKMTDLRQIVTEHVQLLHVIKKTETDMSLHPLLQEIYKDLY
UniProt P19091: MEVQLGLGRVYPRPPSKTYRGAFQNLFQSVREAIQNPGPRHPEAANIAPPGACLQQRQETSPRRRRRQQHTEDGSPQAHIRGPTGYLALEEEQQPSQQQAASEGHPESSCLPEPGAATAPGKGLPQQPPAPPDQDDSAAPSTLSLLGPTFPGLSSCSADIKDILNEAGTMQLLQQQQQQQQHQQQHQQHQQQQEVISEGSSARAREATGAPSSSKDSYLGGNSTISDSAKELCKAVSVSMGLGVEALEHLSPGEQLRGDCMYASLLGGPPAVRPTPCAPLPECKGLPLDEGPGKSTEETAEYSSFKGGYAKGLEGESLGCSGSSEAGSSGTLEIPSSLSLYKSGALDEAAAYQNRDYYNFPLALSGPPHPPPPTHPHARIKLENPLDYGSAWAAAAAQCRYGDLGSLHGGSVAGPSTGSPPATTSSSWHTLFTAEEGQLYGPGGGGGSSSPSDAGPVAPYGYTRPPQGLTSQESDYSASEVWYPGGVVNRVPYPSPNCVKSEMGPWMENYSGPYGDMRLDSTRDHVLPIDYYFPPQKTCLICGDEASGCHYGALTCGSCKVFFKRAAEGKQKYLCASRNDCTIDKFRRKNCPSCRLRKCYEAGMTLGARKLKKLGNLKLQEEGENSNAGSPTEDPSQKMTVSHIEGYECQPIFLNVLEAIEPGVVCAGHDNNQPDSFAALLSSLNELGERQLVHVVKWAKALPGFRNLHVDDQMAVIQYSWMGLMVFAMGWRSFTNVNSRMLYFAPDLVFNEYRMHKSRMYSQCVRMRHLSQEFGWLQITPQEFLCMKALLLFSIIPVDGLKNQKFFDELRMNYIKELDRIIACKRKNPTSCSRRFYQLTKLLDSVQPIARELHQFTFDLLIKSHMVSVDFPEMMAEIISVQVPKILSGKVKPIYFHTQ
UniProt P63017: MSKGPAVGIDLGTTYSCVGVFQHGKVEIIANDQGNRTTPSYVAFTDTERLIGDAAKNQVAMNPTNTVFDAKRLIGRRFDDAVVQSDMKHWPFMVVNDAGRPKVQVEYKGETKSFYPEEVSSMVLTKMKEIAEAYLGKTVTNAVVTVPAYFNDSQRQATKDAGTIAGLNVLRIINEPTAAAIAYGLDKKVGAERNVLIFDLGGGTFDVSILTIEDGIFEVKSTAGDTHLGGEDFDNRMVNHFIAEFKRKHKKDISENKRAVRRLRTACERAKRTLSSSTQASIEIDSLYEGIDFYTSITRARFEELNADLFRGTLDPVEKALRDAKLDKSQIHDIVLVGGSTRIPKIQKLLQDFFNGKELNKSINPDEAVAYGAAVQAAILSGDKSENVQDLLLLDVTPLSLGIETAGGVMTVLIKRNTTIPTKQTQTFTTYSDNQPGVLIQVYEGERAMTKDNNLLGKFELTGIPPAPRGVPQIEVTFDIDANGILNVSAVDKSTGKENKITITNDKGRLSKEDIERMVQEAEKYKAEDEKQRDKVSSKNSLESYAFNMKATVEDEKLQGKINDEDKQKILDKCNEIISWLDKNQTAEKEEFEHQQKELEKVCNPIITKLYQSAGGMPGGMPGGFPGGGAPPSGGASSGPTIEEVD
UniProt P49312: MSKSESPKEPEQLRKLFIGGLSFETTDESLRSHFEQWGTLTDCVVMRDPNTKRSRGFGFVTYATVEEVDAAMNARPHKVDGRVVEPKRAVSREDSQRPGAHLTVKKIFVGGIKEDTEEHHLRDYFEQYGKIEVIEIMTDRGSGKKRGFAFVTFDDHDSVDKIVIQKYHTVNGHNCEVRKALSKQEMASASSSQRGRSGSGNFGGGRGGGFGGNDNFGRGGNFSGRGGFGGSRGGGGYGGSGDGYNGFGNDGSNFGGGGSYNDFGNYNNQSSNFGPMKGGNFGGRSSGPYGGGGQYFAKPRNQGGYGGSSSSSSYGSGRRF
UniProt O88569: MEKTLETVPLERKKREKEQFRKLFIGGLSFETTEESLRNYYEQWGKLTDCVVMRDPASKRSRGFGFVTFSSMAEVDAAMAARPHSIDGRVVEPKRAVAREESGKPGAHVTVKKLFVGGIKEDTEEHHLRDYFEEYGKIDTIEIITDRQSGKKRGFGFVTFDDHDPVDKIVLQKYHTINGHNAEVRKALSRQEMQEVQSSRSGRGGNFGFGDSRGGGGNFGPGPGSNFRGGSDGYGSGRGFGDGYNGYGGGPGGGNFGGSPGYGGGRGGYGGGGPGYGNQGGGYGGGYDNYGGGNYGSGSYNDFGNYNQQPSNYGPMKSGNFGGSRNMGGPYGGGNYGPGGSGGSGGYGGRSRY
UniProt Q8BG05: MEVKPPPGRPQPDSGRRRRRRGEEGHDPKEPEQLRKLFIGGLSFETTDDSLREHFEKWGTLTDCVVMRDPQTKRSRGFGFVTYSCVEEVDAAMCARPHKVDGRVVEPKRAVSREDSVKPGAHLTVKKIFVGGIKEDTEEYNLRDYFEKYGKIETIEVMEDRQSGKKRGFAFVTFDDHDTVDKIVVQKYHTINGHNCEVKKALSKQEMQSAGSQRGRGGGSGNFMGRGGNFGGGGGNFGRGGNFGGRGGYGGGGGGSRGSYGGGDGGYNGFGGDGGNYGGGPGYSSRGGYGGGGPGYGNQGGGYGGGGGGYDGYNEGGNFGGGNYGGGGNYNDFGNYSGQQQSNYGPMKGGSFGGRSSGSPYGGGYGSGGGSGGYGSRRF
UniProt P46096: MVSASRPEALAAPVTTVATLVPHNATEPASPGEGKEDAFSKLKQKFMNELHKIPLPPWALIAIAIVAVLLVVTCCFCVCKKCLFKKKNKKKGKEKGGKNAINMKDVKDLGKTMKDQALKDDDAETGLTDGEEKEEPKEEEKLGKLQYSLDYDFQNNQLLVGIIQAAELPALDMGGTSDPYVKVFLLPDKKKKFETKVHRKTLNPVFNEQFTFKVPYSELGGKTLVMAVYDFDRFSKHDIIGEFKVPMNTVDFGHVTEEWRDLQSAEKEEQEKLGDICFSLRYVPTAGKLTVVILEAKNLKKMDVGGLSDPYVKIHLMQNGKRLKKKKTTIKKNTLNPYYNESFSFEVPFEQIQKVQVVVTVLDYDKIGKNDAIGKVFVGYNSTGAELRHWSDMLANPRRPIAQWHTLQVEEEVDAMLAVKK

Legend:
[1] = target: T1, DNA topoisomerase I, endogenous (mouse (endogenous in cultured cortical neurons)) (UniProt Q04750); test: proximity ligation
T1 sequence: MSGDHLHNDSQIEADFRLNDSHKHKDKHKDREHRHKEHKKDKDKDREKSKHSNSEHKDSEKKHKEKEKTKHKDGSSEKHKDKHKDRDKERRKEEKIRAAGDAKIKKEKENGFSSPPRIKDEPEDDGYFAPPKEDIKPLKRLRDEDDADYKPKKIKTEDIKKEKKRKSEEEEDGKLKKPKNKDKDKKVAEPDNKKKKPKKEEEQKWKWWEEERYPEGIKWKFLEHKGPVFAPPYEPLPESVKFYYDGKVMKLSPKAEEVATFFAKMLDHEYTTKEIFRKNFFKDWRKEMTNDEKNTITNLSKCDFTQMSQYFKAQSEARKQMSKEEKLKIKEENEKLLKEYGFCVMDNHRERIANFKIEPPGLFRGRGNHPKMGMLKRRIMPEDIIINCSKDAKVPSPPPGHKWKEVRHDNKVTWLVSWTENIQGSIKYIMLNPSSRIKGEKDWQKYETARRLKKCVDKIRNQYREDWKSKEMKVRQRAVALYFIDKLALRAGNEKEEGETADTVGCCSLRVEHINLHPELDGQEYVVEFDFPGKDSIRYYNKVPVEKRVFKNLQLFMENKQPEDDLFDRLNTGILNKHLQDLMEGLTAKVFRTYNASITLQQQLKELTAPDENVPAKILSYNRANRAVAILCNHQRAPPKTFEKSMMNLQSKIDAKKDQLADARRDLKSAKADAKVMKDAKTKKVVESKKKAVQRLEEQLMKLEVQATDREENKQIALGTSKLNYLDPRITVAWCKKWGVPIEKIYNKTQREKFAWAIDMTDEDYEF

[2] = target: estrogen receptor α, endogenous (mouse (endogenous in cultured cortical neurons)) (UniProt P19785); test: proximity ligation
[3] = target: importin β1, endogenous (mouse (endogenous in cultured cortical neurons)) (UniProt P70168); test: proximity ligation
[4] = target: T2, nucleoporin 93 kDa, endogenous (mouse (endogenous in cultured cortical neurons)) (UniProt Q8BJ71); test: proximity ligation
T2 sequence: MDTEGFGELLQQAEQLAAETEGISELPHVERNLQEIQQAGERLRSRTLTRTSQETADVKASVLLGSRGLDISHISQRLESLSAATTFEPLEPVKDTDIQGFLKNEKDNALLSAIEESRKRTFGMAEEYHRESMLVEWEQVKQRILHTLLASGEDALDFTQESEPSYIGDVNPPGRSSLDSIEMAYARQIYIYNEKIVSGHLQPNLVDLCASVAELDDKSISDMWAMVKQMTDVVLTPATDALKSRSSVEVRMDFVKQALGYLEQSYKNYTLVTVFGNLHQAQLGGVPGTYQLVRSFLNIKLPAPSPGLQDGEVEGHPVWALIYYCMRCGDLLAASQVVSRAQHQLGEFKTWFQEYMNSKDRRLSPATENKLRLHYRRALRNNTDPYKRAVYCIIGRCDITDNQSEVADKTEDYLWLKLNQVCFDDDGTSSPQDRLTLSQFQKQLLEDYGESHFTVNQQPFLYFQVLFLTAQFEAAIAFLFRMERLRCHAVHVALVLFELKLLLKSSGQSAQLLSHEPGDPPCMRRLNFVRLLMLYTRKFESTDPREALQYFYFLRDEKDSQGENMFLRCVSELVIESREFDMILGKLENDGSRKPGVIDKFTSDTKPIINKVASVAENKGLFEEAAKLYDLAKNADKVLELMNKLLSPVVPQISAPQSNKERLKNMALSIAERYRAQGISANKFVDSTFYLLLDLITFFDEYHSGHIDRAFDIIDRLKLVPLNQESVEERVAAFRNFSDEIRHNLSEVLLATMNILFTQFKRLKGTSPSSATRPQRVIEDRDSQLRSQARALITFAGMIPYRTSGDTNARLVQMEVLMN

[5] = target: peroxisome proliferator-activated receptor γ, endogenous (mouse (endogenous in cultured cortical neurons)) (UniProt P37238); test: proximity ligation
[6] = target: T1, DNA topoisomerase I, endogenous (mouse (endogenous in cultured cortical neurons)); test: proximity ligation; cultured mouse cortical neurons treated with vehicle DMSO or 10 µM DAPT (γ-secretase inhibitor), fixed; L1 antibody C-2 or ab12399 with an antibody against the partner; red dots per nucleus
[7] = target: androgen receptor, endogenous (mouse (endogenous in cultured cortical neurons)) (UniProt P19091); test: as above
[8] = target: estrogen receptor α, endogenous (mouse (endogenous in cultured cortical neurons)) (UniProt P19785); test: as above
[9] = target: heat shock cognate protein 71 kDa, endogenous (mouse (endogenous in cultured cortical neurons)) (UniProt P63017); test: as above
[10] = target: heterogeneous nuclear ribonucleoprotein A1, endogenous (mouse (endogenous in cultured cortical neurons)) (UniProt P49312); test: as above
[11] = target: heterogeneous nuclear ribonucleoprotein A2/B1, endogenous (mouse (endogenous in cultured cortical neurons)) (UniProt O88569); test: as above
[12] = target: heterogeneous nuclear ribonucleoprotein A3, endogenous (mouse (endogenous in cultured cortical neurons)) (UniProt Q8BG05); test: as above
[13] = target: importin β1, endogenous (mouse (endogenous in cultured cortical neurons)) (UniProt P70168); test: as above
[14] = target: T3, non-POU domain containing octamer-binding protein, endogenous (mouse (endogenous in cultured cortical neurons)) (UniProt Q99K48); test: as above
T3 sequence: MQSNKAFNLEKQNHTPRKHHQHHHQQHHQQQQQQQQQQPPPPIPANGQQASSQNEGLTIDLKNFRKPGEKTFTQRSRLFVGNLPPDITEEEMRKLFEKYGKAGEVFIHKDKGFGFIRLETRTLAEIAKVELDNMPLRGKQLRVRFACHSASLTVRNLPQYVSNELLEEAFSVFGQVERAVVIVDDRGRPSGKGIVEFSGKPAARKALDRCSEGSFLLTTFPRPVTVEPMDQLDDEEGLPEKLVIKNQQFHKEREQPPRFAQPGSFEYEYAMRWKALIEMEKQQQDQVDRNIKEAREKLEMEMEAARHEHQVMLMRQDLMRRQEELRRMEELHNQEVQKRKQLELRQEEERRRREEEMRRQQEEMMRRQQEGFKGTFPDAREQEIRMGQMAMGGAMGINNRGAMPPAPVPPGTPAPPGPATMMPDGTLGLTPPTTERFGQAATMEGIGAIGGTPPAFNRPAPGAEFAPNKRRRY

[15] = target: T2, nucleoporin 93 kDa, endogenous (mouse (endogenous in cultured cortical neurons)); test: as above
[16] = target: T4, paraspeckle component 1, endogenous (mouse (endogenous in cultured cortical neurons)) (UniProt Q8R326); test: as above
T4 sequence: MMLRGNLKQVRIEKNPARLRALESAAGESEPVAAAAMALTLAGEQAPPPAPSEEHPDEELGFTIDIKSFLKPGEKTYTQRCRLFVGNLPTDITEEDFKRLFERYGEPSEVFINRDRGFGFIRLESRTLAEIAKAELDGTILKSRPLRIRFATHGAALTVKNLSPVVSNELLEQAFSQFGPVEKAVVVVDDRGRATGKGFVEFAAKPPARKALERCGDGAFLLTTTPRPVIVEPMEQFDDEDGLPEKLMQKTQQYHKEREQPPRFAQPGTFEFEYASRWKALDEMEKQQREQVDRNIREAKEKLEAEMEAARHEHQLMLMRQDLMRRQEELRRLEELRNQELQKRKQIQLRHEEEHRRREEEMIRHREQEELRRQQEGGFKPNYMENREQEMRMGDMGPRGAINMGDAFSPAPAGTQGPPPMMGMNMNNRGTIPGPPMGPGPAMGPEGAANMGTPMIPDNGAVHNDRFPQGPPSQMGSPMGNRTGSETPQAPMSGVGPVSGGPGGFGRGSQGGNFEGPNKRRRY

[17] = target: peroxisome proliferator-activated receptor γ, endogenous (mouse (endogenous in cultured cortical neurons)) (UniProt P37238); test: as above
[18] = target: T5, splicing factor proline/glutamine-rich, endogenous (mouse (endogenous in cultured cortical neurons)) (UniProt Q8VIJ6); test: as above
T5 sequence: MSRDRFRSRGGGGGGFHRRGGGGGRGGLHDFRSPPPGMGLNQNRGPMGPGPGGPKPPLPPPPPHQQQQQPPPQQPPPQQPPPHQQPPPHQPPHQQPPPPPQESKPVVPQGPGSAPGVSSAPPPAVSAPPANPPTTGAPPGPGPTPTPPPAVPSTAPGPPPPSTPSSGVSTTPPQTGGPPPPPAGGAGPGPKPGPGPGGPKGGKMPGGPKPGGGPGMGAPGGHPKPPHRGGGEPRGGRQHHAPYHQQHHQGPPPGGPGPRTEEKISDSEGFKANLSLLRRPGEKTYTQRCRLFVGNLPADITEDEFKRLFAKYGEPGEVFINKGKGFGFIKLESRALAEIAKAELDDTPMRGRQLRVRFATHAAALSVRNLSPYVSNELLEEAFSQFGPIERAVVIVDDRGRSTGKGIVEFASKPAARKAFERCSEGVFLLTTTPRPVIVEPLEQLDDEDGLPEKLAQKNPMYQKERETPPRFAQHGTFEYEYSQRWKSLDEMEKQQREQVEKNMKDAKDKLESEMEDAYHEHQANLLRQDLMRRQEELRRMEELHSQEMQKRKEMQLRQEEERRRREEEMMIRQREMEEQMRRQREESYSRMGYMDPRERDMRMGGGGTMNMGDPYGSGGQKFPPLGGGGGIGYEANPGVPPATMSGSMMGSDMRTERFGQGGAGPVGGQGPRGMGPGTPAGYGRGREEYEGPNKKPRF

[19] = target: synaptotagmin 1, endogenous (mouse (endogenous in cultured cortical neurons)) (UniProt P46096); test: as above
[20] = target: T6, vitamin D receptor, endogenous (mouse (endogenous in cultured cortical neurons)) (UniProt P48281); test: as above
T6 sequence: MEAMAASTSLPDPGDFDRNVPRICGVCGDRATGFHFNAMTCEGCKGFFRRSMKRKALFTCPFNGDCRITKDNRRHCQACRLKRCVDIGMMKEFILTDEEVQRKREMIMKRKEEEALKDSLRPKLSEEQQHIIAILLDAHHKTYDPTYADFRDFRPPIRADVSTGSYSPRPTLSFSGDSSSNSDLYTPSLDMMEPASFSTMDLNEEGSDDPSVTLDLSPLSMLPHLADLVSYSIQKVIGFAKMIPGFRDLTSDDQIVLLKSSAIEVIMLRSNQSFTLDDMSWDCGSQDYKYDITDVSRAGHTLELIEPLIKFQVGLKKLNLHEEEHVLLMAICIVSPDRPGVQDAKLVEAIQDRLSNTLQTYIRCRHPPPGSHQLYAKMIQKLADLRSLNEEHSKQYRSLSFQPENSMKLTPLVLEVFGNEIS

binding [1]: binds
binding [2]: binds
binding [3]: binds
binding [4]: binds
binding [5]: binds
binding [6]: binds
binding [7]: binds
binding [8]: binds
binding [9]: binds
binding [10]: no binding
binding [11]: no binding
binding [12]: no binding
binding [13]: binds
binding [14]: binds
binding [15]: binds
binding [16]: binds
binding [17]: binds
binding [18]: binds
binding [19]: binds
binding [20]: binds
Substance: cell adhesion molecule L1, endogenous in cortical neurons (from UniProt P11627 20-1260)
